PubChem BioAssay AID504332 (National Center for Advancing Translational Sciences (NCATS), 2011)
“And” between values parts separate entries of the source, which are not always exact repeats. Identical values can stand only once. In all, about 350,000 compounds went through this assay and about 31,000 (8.9%) were called active. The shares of active, inactive and inconclusive entries below differ from those in the screen. Calls follow the shape of the dose curve; as a rule, active = well fitted inhibition curve with a large enough effect; inconclusive = small, poorly fitted or top-dose-only effect; inactive = no such curve, though single readings can be large or run the other way. Potencies of inconclusive entries are doubtful fits and often do not repeat.

molecular target: Histone-lysine N-methyltransferase EHMT2 (Homo sapiens) (UniProt Q96KQ7); test: qHTS Assay for Inhibitors of Histone Lysine Methyltransferase G9a; details: G9a H3K9 monomethylation, AlphaScreen, 2 h; activity, negative = inhibition: at 59 µM (top of the series) unless noted; also: nearly all actives have a fitted effect of over 75% in size
Chain of UniProt Q96KQ7 (Q96KQ7 whole entry, looked up): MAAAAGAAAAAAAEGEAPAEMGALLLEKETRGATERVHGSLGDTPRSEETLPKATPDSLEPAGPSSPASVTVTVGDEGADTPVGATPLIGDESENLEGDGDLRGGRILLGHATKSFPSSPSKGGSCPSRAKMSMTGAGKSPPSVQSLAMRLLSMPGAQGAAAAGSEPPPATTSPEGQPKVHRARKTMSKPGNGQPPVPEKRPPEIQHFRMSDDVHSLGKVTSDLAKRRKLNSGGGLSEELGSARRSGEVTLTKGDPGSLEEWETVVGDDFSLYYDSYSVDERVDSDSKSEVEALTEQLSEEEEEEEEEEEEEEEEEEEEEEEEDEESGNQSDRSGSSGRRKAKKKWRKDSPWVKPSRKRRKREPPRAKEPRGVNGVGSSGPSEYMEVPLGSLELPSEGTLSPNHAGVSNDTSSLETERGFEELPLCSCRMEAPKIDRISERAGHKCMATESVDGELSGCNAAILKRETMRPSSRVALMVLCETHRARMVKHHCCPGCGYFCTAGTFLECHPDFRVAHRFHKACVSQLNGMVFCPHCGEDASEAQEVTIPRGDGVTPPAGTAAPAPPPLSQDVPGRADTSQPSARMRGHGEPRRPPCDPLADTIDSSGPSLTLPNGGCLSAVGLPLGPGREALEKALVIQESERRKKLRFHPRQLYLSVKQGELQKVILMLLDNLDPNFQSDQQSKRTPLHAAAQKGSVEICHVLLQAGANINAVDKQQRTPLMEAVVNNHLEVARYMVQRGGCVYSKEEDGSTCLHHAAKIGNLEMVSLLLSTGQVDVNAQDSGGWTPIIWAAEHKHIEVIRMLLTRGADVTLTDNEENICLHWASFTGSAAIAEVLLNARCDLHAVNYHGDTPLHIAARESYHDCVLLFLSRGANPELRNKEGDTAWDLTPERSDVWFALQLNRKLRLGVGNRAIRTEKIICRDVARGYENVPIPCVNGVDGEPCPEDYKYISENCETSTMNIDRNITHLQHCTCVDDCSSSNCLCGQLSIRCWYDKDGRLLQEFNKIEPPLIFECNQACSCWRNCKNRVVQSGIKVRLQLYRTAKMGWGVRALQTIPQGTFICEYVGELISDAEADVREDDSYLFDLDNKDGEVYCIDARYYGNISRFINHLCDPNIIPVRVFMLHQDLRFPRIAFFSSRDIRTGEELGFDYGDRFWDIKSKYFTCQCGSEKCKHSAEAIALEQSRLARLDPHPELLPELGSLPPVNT
Outline: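 Signal arises when biotinylated H3K9 peptide, once monomethylated, bridges streptavidin donor and antibody-captured acceptor beads. Enzyme at 20 nM was preincubated 15 min with test compounds; peptide 500 nM and SAM 20 uM then reacted for 2 h.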
% is scaled to controls: 0 for no effect and ±100 for the full control effect; potency is read from the fitted curve at half-maximal effect; tags tell the direction and shape of the fitted curve.

Row | Compound | activity, negative = inhibition | Potency
1 | CCCCN1C(=O)C(C2c3ccccc3C(=O)N2Cc2ccccc2)C(=O)NC1=S (stereo not drawn) | inconclusive: -89.8% [inhibitor] | –
2 | CCCCCCCSc1cc(OC)c(CCNC)cc1OC | – | active: 22.4 µM
3 | CCN(CCCNS(=O)(=O)c1ccc2c(c1)oc(=O)n2C)c1cccc(C)c1 | – | active: 14.1 µM
4 | Ic1ccccc1CN[C@@H]1C2CCN(CC2)[C@@H]1C(c1ccccc1)c1ccccc1 | – | active: 1.58 µM
5 | CN1CCN(Cc2nnc3n2-c2ccc(Cl)cc2C(c2ccccc2)=NC3)CC1 | – | inconclusive: 39.8 µM [inhibitor, single point]
6 | c1cc2c(cc1CCNC1C3CC4CC(C3)CC1C4)OCO2 (stereo not drawn) | – | active: 25.1 µM
7 | O=C1NC(=O)N(CCNc2ncc(C(F)(F)F)cc2Cl)C(=O)C1Cc1ccc(Cl)cc1 (stereo not drawn) | – | active: 50.1 µM
8 | COc1cc(CC(=O)OCC2=C[C@H]3[C@@H]4C(C)(C)[C@]4(OC(C)=O)[C@H](OC(=O)Cc4ccccc4)[C@@H](C)[C@]3(O)[C@@H]3C=C(C)C(=O)[C@@]3(O)C2)ccc1O | – | inconclusive: 15.8 µM [inhibitor, partial curve, poor fit]
9 | COc1ccc(N2CCN(C(=O)C3CCCN(S(=O)(=O)c4ccc5c(c4)CCCN5C(C)=O)C3)CC2)cc1 (stereo not drawn) | – | inconclusive: 22.4 µM [inhibitor, partial curve, poor fit]
10 | CC1CN(O)C2CCc3nonc3C12O (stereo not drawn) | – | inconclusive: 5.01 µM [inhibitor, partial curve, poor fit]
11 | COc1ccc2[nH]cc(CCN=C(N)N)c2c1 | – | inconclusive: 39.8 µM [inhibitor, single point]
12 | Nc1c2c(nc3ccccc13)CCN(Cc1ccccc1)C2 | – | inconclusive: 89.1 µM [inhibitor, single point]
13 | Cn1cc(/C=C/c2nc3ccccc3c(=O)n2-c2ccccc2)c2ccccc21 | – | inactive
14 | CCOC(=O)c1nc2ccccc2c(=O)n1-c1ccc(C)cc1C | – | inconclusive: 7.08 µM [inhibitor, partial curve, poor fit]
15 | COc1cc(CNc2ccc3[nH]c(=O)[nH]c3c2)ccc1OCc1ccccc1C | – | inconclusive: 79.4 µM [inhibitor, partial curve, poor fit]
16 | COc1cccc(CCNCc2c(F)cccc2F)c1 | – | active: 7.94 µM
17 | Cc1ccc(C(=O)C2CN3CCC2CC3)cc1 (stereo not drawn) | – | inconclusive: 12.6 µM [inhibitor, partial curve, poor fit]
18 | CCN(CC)Cc1c[nH]c2ccccc12 | – | inconclusive: 56.2 µM [inhibitor, partial curve, poor fit]
19 | Cc1ccc(C)c(N2CCN(C(=O)C3CCN(Cc4nc(-c5cccc(Cl)c5)oc4C)CC3)CC2)c1 | – | inconclusive: 35.5 µM [inhibitor, partial curve, poor fit]
20 | O=C(NC1CC1)C1CSC(c2cccnc2)=N1 (stereo not drawn) | – | inconclusive: 89.1 µM [inhibitor, partial curve, poor fit]
21 | CSc1ccc(Cl)c(C(=O)OCC(=O)N2CCN(C(=O)c3ccco3)CC2)c1 | – | inconclusive: 7.94 µM [inhibitor, single point]
22 | CC1CN=C(Nc2ccc(F)cc2)S1 (stereo not drawn) | – | inconclusive: 89.1 µM [inhibitor, partial curve, poor fit]
23 | CCOc1cc(N2CCOCC2)c(OCC)cc1NC(=O)C1=NN(c2cccc(C)c2)C(=O)CC1 | – | active: 11.2 µM

Row | Compound | activity, negative = inhibition | Potency
24 | Cn1cccc1/C=C1\C(=O)NC(=O)N(Cc2ccccc2Cl)C1=O | – | active: 44.7 µM
25 | CN1CCN(C(=O)COc2ccc(S(=O)(=O)NCc3ccccc3)cc2Cl)CC1 | – | inconclusive: 28.2 µM [inhibitor, single point]
26 | CCOc1ccccc1N1CCN(Cc2cccc(OC)c2OC)CC1 | – | inconclusive: 8.91 µM [inhibitor, partial curve]
27 | O=[N+]([O-])c1ccc(N2CCCCC2)c2ncccc12 | – | inconclusive: 17.8 µM [inhibitor, partial curve]
28 | O=C1c2ccccc2C(=O)c2c1ccc1c(=O)n(-c3ccccc3)[nH]c21 | – | active: 3.16 µM
29 | O=C1NC(=O)C(=Cc2ccc(-c3cc(Cl)ccc3[N+](=O)[O-])o2)C(=O)N1 | – | active: 3.98 µM
30 | c1ccc(CCN2CCC(N3CCN(c4ccccc4)CC3)CC2)cc1 | – | inactive
31 | O=C(CN1CCCCC1)c1ccc(F)cc1 | – | inconclusive: 50.1 µM [inhibitor, partial curve, poor fit]
32 | Cc1ccc(S(=O)(=O)N(C)CCCC(=O)N2CCN(c3ccccn3)CC2)cc1 | – | inconclusive: 56.2 µM [inhibitor, partial curve, poor fit]
33 | CC1CCCC(NC(=O)COC(=O)Cc2ccccc2)C1C (stereo not drawn) | – | inactive
34 | O=C(c1ccc(Cl)cc1)C1CCCN(Cc2cccc3cnccc23)C1 (stereo not drawn) | – | inconclusive: 50.1 µM [inhibitor, partial curve]
35 | CN(C)CC/C=C1/c2ccccc2Sc2ccc(Cl)cc21 | – | inconclusive: 44.7 µM [inhibitor, partial curve]
36 | Cc1ccc(-n2c(O)c(/C=N/Nc3ccccc3)c(=O)[nH]c2=O)cc1C | – | active: 7.94 µM
37 | Cc1cc(C)cc(N2C(=O)/C(=C\c3ccc(N4CCN(C)CC4)o3)C(=O)NC2=S)c1 | – | inconclusive: 89.1 µM [inhibitor, single point]
38 | O=C(O)[C@H]1NC[C@H]2C[C@H]21 | – | inconclusive: 89.1 µM [inhibitor, single point]
39 | Cn1c(O)c(/C=N/Nc2ccccc2)c(=O)n(C)c1=O | – | active: 3.98 µM
40 | CC(C)(C#CCCCCC#CC(C)(C)[N+](C)(C)C)[N+](C)(C)C | inconclusive: -65.1% [inhibitor] [at 12.7 µM] | –
41 | C=CCN(C1=NCCN1)c1c(Cl)cccc1Cl | – | inactive
42 | COc1cccc(N2CCN(Cc3ccc(Cl)cc3)CC2)c1 | – | inconclusive: 44.7 µM [inhibitor, partial curve, poor fit]
43 | Cc1cc([N+](=O)[O-])c2ccccc2[n+]1[O-] | inconclusive: -57.6% [inhibitor] | –
44 | COC([CH2][Hg])CNC(=O)c1ccccc1OCC(=O)O (stereo not drawn) | – | inconclusive: 0.708 µM [inhibitor, full curve, poor fit]
45 | C/C(=N\Nc1ccccc1)c1c(O)n(C)c(=O)n(C)c1=O | – | inconclusive: 1.12 µM [inhibitor, full curve, poor fit]
46 | CCOC(=O)CNC(=S)N1CC2C[C@@H](C1)Cn1c2cccc1=O | – | inactive

Row | Compound | activity, negative = inhibition | Potency
47 | OC(CNC1CCCCCCC1)c1ccccc1 (stereo not drawn) | – | active: 14.1 µM
48 | C#C[C@]1(O)CC[C@H]2[C@@H]3CCC4=Cc5nc6nc7ccccc7n6cc5C[C@]4(C)[C@H]3CC[C@@]21C | – | active: 25.1 µM
49 | C[C@]12Cc3cn4c(nc3C=C1CCC1C2CC[C@@]2(C)[C@H]1CC[C@@]2(O)C#N)nc1ccccc14 (stereo partly drawn) | – | inconclusive: 79.4 µM [inhibitor, single point] and inconclusive: 26.7 µM [inhibitor, single point]
50 | c1cnc(N2CCNCC2)nc1 | – | active: 17.8 µM
51 | C[n+]1ccc(-c2ccccc2)c2ccccc21 | inactive: 24.8% [at 2.33 µM] | –
52 | CN1CCN(c2ncnc3ccc(Br)cc23)CC1 | – | inconclusive: 89.1 µM [inhibitor, single point]
53 | C1CNC2NCCNC2N1 (stereo not drawn) | – | inconclusive: 2.51 µM [inhibitor, partial curve, poor fit]
54 | CCOP(=O)(OCC)Oc1cc(C)c(N(C)C)c(C)c1 | – | inconclusive: 70.8 µM [inhibitor, partial curve, poor fit]
55 | CN1C(=O)C(Cc2ccc(OCc3ccccc3)cc2)C(=O)N(C)C1=O | – | active: 79.4 µM
56 | O=[N+]([O-])CCO | inactive: 8.77% [at 0.501 µM] | –
57 | CCCCC/C=C\C/C=C\C/C=C\C/C=C\CCCC(=O)N(Cc1ccc(O)c(Cl)c1)Cc1ccc(O)c(Cl)c1 | – | inconclusive: 3.55 µM [inhibitor, single point]
58 | Oc1c(Br)cc(Br)cc1Br | – | inactive
59 | CCOP(=O)(OCC)C(NC(=O)C(C)C)C(Cl)(Cl)Cl (stereo not drawn) | inactive: 24.1% [at 0.501 µM] | –
60 | CN(C)C(=S)SC(=S)N(C)C | – | active: 2.51 µM
61 | O=C(N/N=C/c1c(O)n(Cc2ccccc2)c(=O)[nH]c1=O)c1ccccc1O | – | inconclusive: 22.4 µM [inhibitor, single point]
62 | C[C@]12CC[C@H](O)C[C@H]1CC[C@@H]1C2CC[C@]2(C)[C@@H](C3=CC(=O)OC3)[C@@H](O)C[C@]12O (stereo partly drawn) | inactive: -8.99% [at 2.33 µM] | –
63 | C=CCN1C(=O)/C(=C/c2cc(C)n(-c3cccnc3)c2C)C(=O)NC1=S | – | inconclusive: 31.6 µM [inhibitor, single point]
64 | CCc1ccc(NC(=O)CN2C(=O)C3(SCC(=O)N3c3ccc(F)c(F)c3)c3ccccc32)cc1 (stereo not drawn) | – | inconclusive: 1.78 µM [inhibitor, partial curve, poor fit]
65 | O=C(/C=C/c1ccccc1)NC(NC(=S)Nc1cccc2cccnc12)C(Cl)(Cl)Cl (stereo not drawn) | – | active: 14.1 µM
66 | CC(=O)c1cc(C#N)c(N2CCN(C)CC2)nc1C | – | inconclusive: 44.7 µM [inhibitor, partial curve, poor fit]
67 | O=C(N/N=C/c1c(O)n(Cc2ccco2)c(=O)[nH]c1=O)c1ccccc1O | – | inconclusive: 50.1 µM [inhibitor, partial curve, poor fit]
68 | COc1ccc2[nH]cc(CCNCc3ccc(Br)cc3)c2c1 | – | inconclusive: 20 µM [inhibitor, single point]
